Measured values taken from PubChem BioAssay (Tox21).
Inconclusive results, whose numbers are uncertain, are shown with a selection of clear calls. Potencies of inconclusive entries are left out as doubtful fits. The source made the active and inactive calls. Calls follow the shape of the dose curve; as a rule, active = well fitted cell-killing curve with a large enough effect in the repeat runs; inconclusive = weak or mixed curves, or effect the other way; inactive = no such curve, though single readings can be large or run the other way.
Potency is read from the fitted curve at half-maximal effect; tags tell the direction and shape of the fitted curve.

Experiment: qHTS assay to identify small molecule antagonists of the sonic hedgehog signaling (Shh) pathway - cell viability counter screen (AID 1259367); also: nearly all actives have a fitted effect of over 55% in size
Details: NIH/3T3 Gli1-Luc viability, CellTiter-Fluor, 24 h; series mostly up to 92.4 µM
In short: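 Using CellTiter-Fluor, viability of Gli1-Luc reporter 3T3 cells is read by fluorescence in the wells used for the Shh luciferase assay. Treatment lasts 23 hr with conditioned medium, then reagent 1 hr at 37C.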
With `CCCCCCCCCC#N` the Potency was active: 60.8 µM.
For `O=C(CCN1CCN2CCCC2C1)N1c2ccccc2Sc2ccc(Cl)cc21` (configuration not stated), the Potency was inconclusive [cytotoxic, partial curve].
In the case of `C#Cc1cccc(Nc2ncnc3cc(OCCOC)c(OCCOC)cc23)c1`, the Potency is reported as inconclusive [cytotoxic, full curve].
In the case of `CC(C)O`, the Potency is reported as inconclusive [cytotoxic, single point].
With `CN1CCC(=C2c3ccccc3CCc3cccnc32)CC1` the Potency was inconclusive [cytotoxic, partial curve].
In the case of `O=C(O)CC(C(=O)O)C(CC(=O)O)C(=O)O` (configuration not stated), the Potency is reported as “inactive”.
For `O=C(OCC1(COC(=O)c2cccnc2)CCCC(COC(=O)c2cccnc2)(COC(=O)c2cccnc2)C1O)c1cccnc1`, the Potency was inconclusive [cytotoxic, partial curve, poor fit].
